Source: PMC4336329 (PLoS ONE, 2015)
Hit rate of the full screen: of about 310,000 compounds, about 2,200 (0.71%) showed an effect of 50% or more. The effect is printed as a negative number. Some of the results follow.

target: human ether-à-go-go-related gene (hERG) potassium channel (human, UniProt Q12809); assay: primary screen, population patch clamp on CHO cells stably expressing hERG
Sequence (Q12809 whole entry, looked up): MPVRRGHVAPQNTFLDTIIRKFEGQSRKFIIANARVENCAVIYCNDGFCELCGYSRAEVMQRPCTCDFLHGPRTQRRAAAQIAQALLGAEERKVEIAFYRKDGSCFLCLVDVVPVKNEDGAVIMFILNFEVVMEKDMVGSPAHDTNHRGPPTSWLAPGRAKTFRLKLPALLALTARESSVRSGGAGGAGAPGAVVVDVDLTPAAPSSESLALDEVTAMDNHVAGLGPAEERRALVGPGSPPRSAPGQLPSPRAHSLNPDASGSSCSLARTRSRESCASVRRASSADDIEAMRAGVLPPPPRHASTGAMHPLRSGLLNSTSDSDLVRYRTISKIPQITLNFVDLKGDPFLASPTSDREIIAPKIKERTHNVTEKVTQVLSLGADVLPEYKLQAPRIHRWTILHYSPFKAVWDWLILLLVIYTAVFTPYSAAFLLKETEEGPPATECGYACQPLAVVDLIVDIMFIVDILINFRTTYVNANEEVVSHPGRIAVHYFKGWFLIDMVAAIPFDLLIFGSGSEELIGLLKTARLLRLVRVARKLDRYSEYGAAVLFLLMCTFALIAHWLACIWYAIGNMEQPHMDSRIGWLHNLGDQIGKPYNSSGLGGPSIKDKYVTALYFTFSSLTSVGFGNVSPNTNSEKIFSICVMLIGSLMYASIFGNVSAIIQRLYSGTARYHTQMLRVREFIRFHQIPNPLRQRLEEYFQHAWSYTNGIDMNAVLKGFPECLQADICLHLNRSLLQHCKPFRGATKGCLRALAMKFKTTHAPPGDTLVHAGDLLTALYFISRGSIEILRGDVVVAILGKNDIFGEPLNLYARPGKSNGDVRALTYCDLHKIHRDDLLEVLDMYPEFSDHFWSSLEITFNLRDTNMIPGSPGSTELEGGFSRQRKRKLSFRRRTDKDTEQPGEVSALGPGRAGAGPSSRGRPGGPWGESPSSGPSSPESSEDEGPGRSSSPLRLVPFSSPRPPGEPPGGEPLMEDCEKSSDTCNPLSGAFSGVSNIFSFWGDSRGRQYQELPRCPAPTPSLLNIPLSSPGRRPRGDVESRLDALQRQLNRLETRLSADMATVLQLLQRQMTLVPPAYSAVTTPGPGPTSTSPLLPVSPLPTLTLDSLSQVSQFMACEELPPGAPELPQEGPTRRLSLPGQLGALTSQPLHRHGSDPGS

| Structure (SMILES) | hERG current change (%, negative = inhibition) at 1uM [%] |
| --- | --- |
| Nc1nc(SCC(=O)Nc2ccccc2)[nH]c(=O)c1NC(=O)c1cccs1 | 7.11 |
| CCOC(=O)c1cnc2ccc(C)cn2c1=O | -2.98 |
| O=C(Nc1ccc(F)cc1F)Nc1sccc1-c1nc2ccccc2s1 | 15 |
| COc1ccc(C(=O)COC(=O)CCN2C(=O)C3C4C=CC(C5CC45)C3C2=O)cc1 (stereo not shown) | 12.9 |
| O=C(c1cccs1)N1CCN(c2cc(Cl)ccc2Cl)CC1 | 9.11 |
| CCOc1ccccc1-c1cc(C(=O)Nc2ccc(C(=O)O)cc2)c2ccccc2n1 | 17.1 |
| Nn1c(Cc2cccc3ccccc23)nnc1SCCOc1ccc(F)cc1 | 10.7 |
| COc1cc(C)c(NC(=S)Nc2ccc(C)c(Cl)c2)cc1OC | 7.52 |
| O=C(/C=C/c1ccc(Cl)cc1Cl)N1CCc2ccccc21 | 3.81 |
| Cc1cc(COC(=O)C2N3C(=O)[C@@H](NC(=O)COc4ccccc4)[C@H]3SC2(C)C)on1 (stereo partly shown) | -0.692 |
| N/C(=N\c1nc2c(c(=O)[nH]1)CCC2)Nc1cccc(Cl)c1 | 9.68 |
| CC(=O)Nc1cc(NC(=O)CCCC(=O)O)ccc1Cl | 3.1 |
| O=C(CSc1nc2ccc(Nc3nc(N4CCOCC4)nc(N4CCOCC4)n3)cc2s1)N1CCOCC1 | -0.773 |
| CC(C)CN(C(=O)COC(=O)c1cccnc1Cl)c1c(N)n(Cc2ccccc2)c(=O)[nH]c1=O | 6.1 |
| O=[N+]([O-])c1cccc(-c2nc(-c3ccccc3)c(-c3cccs3)[nH]2)c1 | 11.9 |
| O=C(CCc1nnc(C2CCCCC2)o1)N1CCN(Cc2ccccc2)CC1 | 15.5 |
| Cn1nc(C(F)(F)F)c(CNC(=O)C(C)(C)CCl)c1N1CCOCC1 | 8.79 |
| CN(C)c1ccc(/C=C(/C#N)C(=O)NCc2ccccc2)o1 | 10.1 |
| COC(CN(C)S(=O)(=O)c1cc2c3c(c1)CCN3C(=O)CC2)OC | 21.2 |
| COc1ccc(CN2CCNC(=O)C2CC(=O)NCCc2nc(C)c3c(n2)CCC3)cc1C (stereo not shown) | 32.9 |
| O=C(O)c1ccc(COc2cccc(CO)c2)cc1 | 9.83 |
| CCOc1cc(/C=C2/C(=N)N3C(=NC2=O)SN=C3S(C)(=O)=O)ccc1OS(=O)(=O)c1ccccc1 | 17.3 |

| Structure (SMILES) | hERG current change (%, negative = inhibition) at 1uM [%] |
| --- | --- |
| COc1cc(NC(=O)C/C(C)=N/NC(=O)C(OC)c2ccccc2)c(OC)cc1Cl (stereo not shown) | 0.8 |
| COc1ccc(Cl)c2sc(N(CCN(C)C)C(=O)c3ccc4c(c3)OCCO4)nc12.Cl | 0.602 |
| O=C(CN1CCC(NC(=O)c2ccccc2Cl)CC1)NCc1ccccc1 | 9.16 |
| C=CCc1cc(/C=N/n2cnnc2)cc(OCC)c1O | 11.7 |
| COc1cccc(-c2cc(C(=O)Nc3cccc(O)c3)no2)c1 | 15.1 |
| CCOC(=O)c1c(-c2ccco2)csc1NC(=O)COC(=O)c1cnccn1 | 19.1 |
| CCN1CCN(CC(=O)Nc2nc3ccc(OC)cc3s2)CC1.O=C(O)C(=O)O | -5.3 |
| Cc1cccc(C(=O)NCc2nnc(SC(C)C(=O)Nc3nnc(C)s3)n2C)c1 (stereo not shown) | 6.15 |
| NNC(=O)/C(=C/c1cccs1)NC(=O)c1ccccc1Cl | 5.81 |
| CCn1cc(C(=O)O)c(=O)c2cc(F)c(N3CCN(C(=S)NC(=O)c4c(OC)cccc4OC)CC3)cc21 | 12.2 |
| CCOc1cc(NS(=O)(=O)c2ccc(NC(C)=O)cc2)c(OCC)cc1NC(=O)c1cccs1 | 13.5 |
| CN(Cc1ccc(F)cc1)C(=O)C(c1ccccc1)c1ccccc1 | 9.21 |
| O=C(O)[C@H](Cc1ccccc1)N1C(=O)c2ccncc2C1=O | 19.2 |
| O=C1OC(Nc2nccs2)c2ccccc21 (stereo not shown) | 13.5 |
| CCCn1nc(C(=O)Nc2nc(-c3ccccn3)cs2)c2ccccc2c1=O | 11.2 |
| CC(C)O.O=C(O)c1cc(S(=O)(=O)Nc2ccc(N3CCCCC3)cc2)ccc1Cl | 9.06 |
| O=C(Nc1cccc(Cl)c1N1CCCC1)c1cccc(-c2cc3ccccc3oc2=O)c1 | -1.8 |
| CCOC(=O)C1SC2(C(F)(F)F)CC1(O)c1c(C)cc(C)nc1O2 (stereo not shown) | -1.85 |
| Cc1ccc(C)n1-c1ccc(NC(=O)c2ccccc2)cc1 | 1.19 |
| COC(=O)c1ccccc1NC(=O)c1ccc2c(c1)OCCO2 | 7.74 |
| O=C(CNC(=O)c1ccc(Cl)c([N+](=O)[O-])c1)OCN1C(=O)c2ccccc2C1=O | 19.4 |
| CC(=O)Nc1cc(NC(C)=O)ncn1 | 11.4 |

| Structure (SMILES) | hERG current change (%, negative = inhibition) at 1uM [%] |
| --- | --- |
| CC(=O)Nc1ccccc1-c1nn[nH]n1 | 1.42 |
| Cc1sc2ncnc(SCC(=O)Nc3ncccc3O)c2c1C | 7.42 |
| CC(C)c1ccccc1OCCNC(=O)c1cncc(Br)c1 | -3.2 |
| COc1ccccc1CNC(=O)c1cccc2c1C(=O)N(Cc1cccnc1)C2 | 5.03 |
| COc1ccccc1/C=C(/C#N)C(=O)O | 18.7 |
| Cc1cc(C)cc(C(=O)NC(CC(N)=O)c2ccc(NCC3CC3)c([N+](=O)[O-])c2)c1 (stereo not shown) | -1.16 |
| Cc1ccc(-c2nc(N)sc2CC(=O)OCC(=O)NCCC(C)C)cc1 | -1.99 |
| COc1ccc(N2CCN(c3ccc(S(=O)(=O)N(C(C)C)C(C)C)cn3)CC2)cc1 | 13.7 |
| Cc1cc(C)c2c(=O)[nH]c(SCC(=O)NCc3ccccc3)nc2n1 | 9.7 |
| CC(C)NCC(O)c1ccc2ccccc2c1.Cl (stereo not shown) | 12 |
| CCOC(=O)C1=C(N)Oc2c(c(=O)oc3ccccc23)C12C(=O)N(C)c1ccccc12 (stereo not shown) | 8.75 |
| O=C(O)c1ncn(Cc2ccccc2)c1C(=O)O | 11.2 |
| CCOC(=O)C1CCCN(CC(O)COc2ccccc2C(C)=O)C1.Cl (stereo not shown) | -6.92 |
| Cc1ccc2[nH]c(=O)c(CN3CCCCC3)c(-c3ccccc3)c2c1 | -2.24 |
| Cc1ccc(C(=O)O)cc1-c1ccc(/C=C2\SC(=O)N(CC(=O)Nc3ccc4c(c3)OCO4)C2=O)o1 | 1.76 |
| c1cncc(-c2noc(CC3CCCCC3)n2)c1 | 4.18 |
| Oc1cccc(NC(=S)N=Nc2c(O)[nH]c3ccc(Br)cc23)c1 | 12.5 |
| COc1ccc(-n2nc(C)c3sc(C)nc3c2=O)cc1 | 11.1 |
| CN(Cc1ccon1)Cc1cn[nH]c1-c1ccc(-c2ccccc2)cc1 | 8.74 |
| NC(=O)C1CCN(C(=O)C2CC(=O)N(c3ccc(F)cc3)C2)CC1 (stereo not shown) | 13.6 |
| Cc1cc(C(=O)NP(=O)(N2CCOCC2)N2CCOCC2)c(C)n1-c1ccc(Br)cc1 | 12.9 |
| O=C1CC(c2ccccc2)n2nc(NS(=O)(=O)c3ccccc3)nc2N1 (stereo not shown) | -1.49 |

| Structure (SMILES) | hERG current change (%, negative = inhibition) at 1uM [%] |
| --- | --- |
| CN(Cc1c(F)cccc1Cl)C(=O)CCc1c[nH]c2ccccc12 | 7.64 |
| Cc1ccccc1NC(=S)N(Cc1ccco1)C(C)c1cccs1 (stereo not shown) | 4.51 |
| Cc1cc(C)nc(N(C#N)Cc2ccccc2Cl)n1 | 7.42 |
| Cn1cc(C=C2C(=O)OC3(CCCCC3)OC2=O)c2ccccc21 | 19 |
| CCC1(c2ccccc2)NC(=S)N(c2cccc(C)c2C)N1 (stereo not shown) | 11 |
| C=CCNC(=O)c1c(CSc2ccc(Cl)cc2)noc1C(=O)NCc1ccccc1 | 0.625 |
| CC1(C)Cc2ccccc2C(=NC(Cc2ccccc2)C(=O)O)N1 (stereo not shown) | 8.45 |
| CCCn1nc(NS(=O)(=O)c2ccccc2[N+](=O)[O-])c2cc3ccccc3nc21 | 4.03 |
| CSCC(=O)N1CCC(n2nccc2NC(=O)CCCc2ccccc2)CC1 | -11.1 |
| Cc1ccc(NC(=O)CNC(=O)OCc2ccccc2)cc1C | 4.09 |
| COc1ccc(CC(=O)Nc2cccc(C(C)=O)c2)cc1S(=O)(=O)N1CCOCC1 | 17.1 |
| COc1ccc(/C=C/c2nnc(NC(=O)COc3ccccc3)s2)cc1 | 14 |
| COc1ccc2c(c1)sc1nc(-c3ccccc3)cn12 | 0.541 |
| COc1cc(CC(=O)Nc2nc(C)cs2)cc(OC)c1OC | 10.9 |
| O=c1cnnc(Nc2ccc(F)cc2)[nH]1 | 5.98 |
| CCOc1ccccc1NC(=S)N(CCC(C)C)C1CCN(C(C)=O)CC1 | 11.3 |
| CN(CC(=O)Nc1ccccc1Br)C(=O)CNC(=O)c1cccs1 | 10.7 |
| COc1ccc(CN2CC(C(=O)NCCCN3CCN(Cc4ccccc4)CC3)CC2=O)cc1 (stereo not shown) | -17.3 |
| O=C1CC(=O)NC(SCC(=O)Nc2ccccc2[N+](=O)[O-])=N1 | 11.2 |
| COc1ccc(NC(=O)C2C3C=CC4(CN(Cc5cccnc5)C(=O)C24)O3)c(OC)c1 (stereo not shown) | 10.1 |
| O=C(c1cccnc1)N1N=C(C2CC2)CC1(O)C(F)(F)F (stereo not shown) | 14.2 |
| CC(=O)NCCCC(=O)NC(CCC(=O)OCc1ccccc1)C(=O)OCc1ccccc1 (stereo not shown) | 7.22 |
